Test results published in PubChem BioAssay AID1476 (National Center for Advancing Translational Sciences (NCATS), 2009).
The whole screen tested about 200,000 compounds, of which about 4,500 (2.2%) were called active. This list was built around the results that the source calls inconclusive (neither active nor inactive); the mix of calls is not that of the screen. Calls follow the shape of the dose curve; as a rule, active = well fitted inhibition curve with a large enough effect; inconclusive = small, poorly fitted or top-dose-only effect, or effect the other way; inactive = flat fitted curve, though single readings scatter. Where the call is inconclusive, the potency comes from a doubtful curve fit.

Biological target: Cruzipain (Trypanosoma cruzi) (UniProt P25779)
Assay: qHTS Assay for Promiscuous and Specific Inhibitors of Cruzain (without detergent); also: nearly all actives have a fitted effect of over 40% in size;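 as to max response, negative = inhibition: plate controls were enzyme without inhibitor for no effect and buffer without enzyme for full effect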
Settings: purified cruzain, Z-FR-AMC fluorescence, no detergent
Procedure, shortened: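 Detergent-free condition (0.00005% Triton X-100) in acetate buffer pH 5.5 with DTT. 1.5 nM enzyme and compound were pre-mixed 15 min, then 2 uM Z-FR-AMC substrate added; reaction progress from fluorescence change between first and third reads (60 s).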
Potency is read from the fitted curve at half-maximal effect; tags tell the direction and shape of the fitted curve.

UniProt P25779, sequence (P25779 whole entry, looked up): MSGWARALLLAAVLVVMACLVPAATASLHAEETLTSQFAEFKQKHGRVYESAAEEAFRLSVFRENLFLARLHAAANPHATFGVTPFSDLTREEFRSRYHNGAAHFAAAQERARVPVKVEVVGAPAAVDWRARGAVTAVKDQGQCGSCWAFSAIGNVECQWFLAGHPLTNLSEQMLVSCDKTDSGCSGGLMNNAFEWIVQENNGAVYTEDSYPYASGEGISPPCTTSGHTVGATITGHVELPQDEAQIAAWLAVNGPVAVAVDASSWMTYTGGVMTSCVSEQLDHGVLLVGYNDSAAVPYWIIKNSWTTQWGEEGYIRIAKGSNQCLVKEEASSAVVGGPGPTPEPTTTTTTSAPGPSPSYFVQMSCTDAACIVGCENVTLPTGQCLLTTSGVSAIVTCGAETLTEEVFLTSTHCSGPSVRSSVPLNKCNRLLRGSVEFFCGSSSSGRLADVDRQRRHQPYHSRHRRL

| Compound | Potency | max response, negative = inhibition |
| --- | --- | --- |
| CC1CN(S(=O)(=O)c2ccc(NC(=O)c3cc(-c4ccccc4O)n[nH]3)cc2)CC(C)O1 (centres undefined) | inconclusive: 25.1 µM [activator, single point] |  |
| CCOC(=O)C1CCN(C(c2cccc(OC)c2)c2sc3nc(C)nn3c2O)CC1 (centres undefined) | inconclusive: 39.8 µM [activator, single point] |  |
| CC(C)CN(CC(C)C)S(=O)(=O)c1ccc(C(=O)Nc2sc3c(c2C(N)=O)CC(C)(C)NC3(C)C)cc1 |  | inactive: 29.2% |
| COc1ccc(S(=O)(=O)N2CCCCCC2)cc1NC(=O)Cc1cc(OC)c(OC)c(OC)c1 | inconclusive: 39.8 µM [activator, single point] |  |
| CCc1ccc(NC(=O)CCCc2nnc3n(CC(C)C)c(=O)c4sccc4n23)cc1 |  | inactive: 6.06% |
| CC1Cc2ccccc2N1C(=O)CSc1nnc(-c2ccccc2)c(-c2ccccc2)n1 (centres undefined) | active: 15.8 µM |  |
| COc1cccc(CS(=O)(=O)c2nnnn2-c2ccc(F)cc2Br)c1 |  | inactive: -0.299% |
| Cc1ccc2nc(NC(=O)c3cccc(-c4cc5ccccc5oc4=O)c3)sc2c1 | active: 10 µM |  |
| COc1ccccc1N1CCN(C(c2ccc(Cl)cc2)c2nnnn2C(C)(C)C)CC1 (centres undefined) | inconclusive: 39.8 µM [activator, single point] |  |
| Cc1cc(N(C(=O)c2ccco2)C(C(=O)NC2CCCCC2)c2ccccc2)ccc1-n1cnnn1 (centres undefined) | inconclusive: 31.6 µM [activator, single point] |  |
| CCc1ccc(-n2c(=O)c3sc4ccccc4c3n(CC(=O)N3CCCC3)c2=O)cc1 |  | inactive: 3.73% |
| COc1ccc(C)cc1NC(=O)C(Sc1nnc(-c2cccs2)o1)c1ccccc1 (centres undefined) | inconclusive: 39.8 µM [inhibitor, single point] |  |
| N[C@@H](CCP(=O)(O)O)C(=O)O | inconclusive: 39.8 µM [activator, single point] |  |
| Cc1ccc(-c2nc(CS(=O)CC(=O)N3CCN(c4cccc(Cl)c4)CC3)c(C)o2)cc1 (centres undefined) | inconclusive: 10 µM [activator, partial curve] |  |
| Cc1[nH]nc(N=CC2=C(O)CC(C)(C)CC2=O)c1-c1ccc(Cl)cc1 | inconclusive: 31.6 µM [activator, single point] |  |
| CCCOc1cccc(C2c3c(oc4ccccc4c3=O)C(=O)N2c2nncs2)c1 (centres undefined) | inconclusive: 39.8 µM [activator, single point] |  |
| COc1ccc(CN2CCc3c(c(=O)n4ncc(C(=O)N5CCN(c6ccc(F)cc6)CC5)c4n3C)C2)cc1 | inconclusive: 31.6 µM [activator, single point] |  |
| CCOc1ccc2[nH]c(=O)c(CN(CCO)C3(c4nnnn4C4CCCCC4)CCCCC3)cc2c1 | inconclusive: 25.1 µM [activator, single point] |  |
| COC(=O)c1c(NC(=O)Cc2coc3cc(C)ccc23)sc2c1CCCC2 |  | inactive: -24.5% |
| COc1ccccc1CN1CC[C@@]2(CCCN(C(=O)c3cnccn3)C2)C1 |  | inactive: -5.07% |
| COC(=O)C1=CNC=C(C(=O)OC)C1c1ccccc1Cl | inconclusive: 31.6 µM [activator, single point] |  |
| COc1ccc(-c2cc(C)no2)cc1S(=O)(=O)NCc1cccs1 |  | inactive: -4.11% |

| Compound | Potency | max response, negative = inhibition |
| --- | --- | --- |
| CCCCCCC(=O)c1c(C)[nH]c(C(=O)OCC)c1C | inconclusive: 39.8 µM [activator, single point] |  |
| CCn1c(=O)c(C(=O)NNS(=O)(=O)c2ccc(Cl)cc2)c(O)c2ccccc21 | active: 25.1 µM |  |
| CCCOc1ccc(C(CC(=O)O)NC(=O)C23CC4CC(CC(C4)C2)C3)cc1 (centres undefined) | inconclusive: 3.98 µM [inhibitor, single point] |  |
| COc1cc(OC)c(NC(=O)N2CCCn3nc(C)cc32)cc1Cl |  | inactive: 3.67% |
| Cc1cccc(-n2ccnc2SCC(=O)Nc2cccc3ccccc23)c1C |  | inactive: -4.61% |
| O=C(Nc1nccs1)c1ccc(COc2ccc(Cl)cc2)o1 | inconclusive: 39.8 µM [inhibitor, single point] |  |
| CCN(C(=O)Cn1cnc2onc(-c3ccc(F)cc3)c2c1=O)c1ccc(OC)cc1 | inconclusive: 39.8 µM [activator, single point] |  |
| O=[N+]([O-])c1ccc(-c2cc(-c3ccc(Cl)cc3)n[nH]2)cc1 | inconclusive: 25.1 µM [inhibitor, single point] |  |
| CCn1c2ccc(OC)cc2c2nc3ccccc3nc21 | inconclusive: 39.8 µM [activator, single point] |  |
| COc1cc(Nc2ccccc2Cl)c([N+](=O)[O-])nc1[N+](=O)[O-] |  | inactive: -0.543% |
| COc1ccc(CCNC(=O)c2cc3sccc3n2Cc2ccc(Cl)cc2)cc1OC |  | inactive: -6.39% |
| CC(=O)OC1CC2C(C)(C)C(O)CCC2(C)C2CC[C@]3(C)C(=CC(=O)OC3c3ccoc3)C12C (some centres undefined) | inconclusive: 31.6 µM [activator, single point] |  |
| O=C(NCCc1ccccc1Cl)c1ccc2c(=O)n(-c3ccccc3)c(=O)[nH]c2c1 | inconclusive: 39.8 µM [inhibitor, single point] |  |
| Cc1ccc(C2=N/C(=C\c3ccc(OS(=O)(=O)c4ccc(C)cc4)cc3)C(=O)O2)cc1 | active: 20 µM |  |
| CCOC(=O)c1c(NC(=S)NC(=O)/C=C/c2cccs2)sc(C)c1C | active: 10 µM |  |
| COc1ccc(NC(=O)CCNS(=O)(=O)c2cccc3nsnc23)cc1Cl |  | inactive: -13.1% |
| CC(C)CO[C@H](c1ccc2c(c1)OCO2)[C@H](C)Br |  | inactive: -4.67% |
| COC(=O)c1cn(NC(=O)Cc2ccc(Cl)c(Cl)c2)c(=O)c2ccccc12 | inconclusive: 39.8 µM [inhibitor, single point] |  |
| Cn1cc(C2=C(c3cn(CCCSC(=N)N)c4ccccc34)C(=O)NC2=O)c2ccccc21 | inconclusive: 39.8 µM [inhibitor, single point] |  |
| CCC(C)n1c(NC(=O)c2ccccc2)c(C#N)c2nc3ccccc3nc21 (centres undefined) | inconclusive: 39.8 µM [activator, single point] |  |
| CCCOc1ccc(C2CC(=O)Nc3c2c(C)nn3-c2nncc(-c3cccc(OC)c3)n2)cc1OC (centres undefined) |  | inactive: -5.59% |
| Cc1ccc2c(COC(=O)C34CC5CC(CC(C5)C3)C4)cc(=O)oc2c1 | inconclusive: 31.6 µM [inhibitor, single point] |  |

| Compound | Potency | max response, negative = inhibition |
| --- | --- | --- |
| O=c1[nH]c(=O)n(C2CCCCC2)c(O)c1C1=Nc2ccccc2SC(c2ccc(Cl)cc2)C1 (centres undefined) | inconclusive: 39.8 µM [activator, single point] |  |
| C[N+]1(C)C2CCC1CC(OC(=O)C(O)c1ccccc1)C2 (centres undefined) |  | inactive: -6.51% |
| COCCNC(=O)C(OC(=O)CC1Sc2ccccc2NC1=O)c1ccncc1 (centres undefined) | inconclusive: 7.94 µM [inhibitor, partial curve] |  |
| Cc1cccc(N2C(=O)CSC23C(=O)N(CC(=O)NCc2ccccc2Cl)c2ccccc23)c1 (centres undefined) | inconclusive: 31.6 µM [inhibitor, single point] |  |
| COCCn1c(=O)c(-c2ccc(Cl)cc2)nc2cnc(N(C)C)nc21 |  | inactive: -7.98% |
| COc1ccccc1NC(=O)Cn1c(=O)c(CNc2ccc(C)cc2)cc2cc3c(cc21)OCCO3 | inconclusive: 25.1 µM [inhibitor, single point] |  |
| Cc1ccc(-c2nnc(CSc3nnc(COc4cccc5ccccc45)n3-c3ccccc3)o2)cc1 | inconclusive: 39.8 µM [inhibitor, single point] |  |
| O=C(Nc1c(Cl)cccc1Cl)c1cc(=O)n(Cc2ccccc2)c(=O)[nH]1 | inconclusive: 39.8 µM [inhibitor, single point] |  |
| COc1cc(/C=C/C(=O)OCC(=O)Nc2ccc(S(=O)(=O)N3CCCC3)cc2)ccc1O | inconclusive: 20 µM [inhibitor, single point] |  |
| Cc1ccc(NC(=O)Cn2nc(C)n3cccc3c2=O)c(C)c1 |  | inactive: -3.28% |
| CCOC(=O)C(/C=C(\C#N)C(=O)OCC)=C(/N)N1CCN(c2ccccc2)CC1 | inconclusive: 39.8 µM [activator, single point] |  |
| CCOCCCNC(=O)C(c1ccc(OC)cc1)N(Cc1ccc2c(c1)OCO2)C(=O)c1ccccc1O (centres undefined) | inconclusive: 31.6 µM [activator, single point] |  |
| CC(=O)N1c2ccc(S(=O)(=O)NCC3CCC(C(=O)Nc4cccc(C)c4C)CC3)cc2CC1C (centres undefined) | inconclusive: 6.31 µM [activator, single point] |  |
| COc1ccc(-c2nc(SCc3cc(=O)c4cc(C)ccc4[nH]3)n[nH]2)cc1 |  | inactive: -12.1% |
| COc1ccc(NC(=O)c2ccc3c(SCC(=O)O)c4c(nc3c2)CCC4)c(OC)c1 | inconclusive: 31.6 µM [activator, single point] |  |
| Cc1sc2ncn(CC(=O)N3CCN(c4cccc(Cl)c4)CC3)c(=O)c2c1S(=O)(=O)N1CCN(c2ncccn2)CC1 | inconclusive: 39.8 µM [activator, single point] |  |
| COc1ccccc1N1CCN(S(=O)(=O)CCNC(=O)COc2ccc(C(C)C)cc2)CC1 | inconclusive: 25.1 µM [activator, partial curve] |  |
| COc1ccc(N/N=C(/C#N)S(=O)(=O)c2nsc(C)c2C#N)cc1 | inconclusive: 31.6 µM [inhibitor, single point] |  |
| COC(=O)COc1cc(C)cc2oc(=O)c(CC(=O)OC)c(C)c12 | inconclusive: 39.8 µM [inhibitor, single point] |  |
| CCn1cc(C(=O)NCc2ccc3c(c2)OCO3)c(=O)c2cc(F)c(N3CCN(C(=O)c4ccco4)CC3)cc21 | inconclusive: 12.6 µM [activator, partial curve] |  |
